Assay results from PubChem BioAssay AID2100 (National Center for Advancing Translational Sciences (NCATS), 2009).
Among all 300,000 compounds or so, about 1,200 (0.4%) were called active. This list was built around the results that the source calls inconclusive (neither active nor inactive); the mix of calls is not that of the screen. Calls come from the whole dose curve; as a rule, active = well fitted inhibition curve with a large enough effect; inconclusive = small, poorly fitted or top-dose-only effect, or another doubt; inactive = no such curve, though single readings can be large or run the other way. Potencies beside an inconclusive call are fits to weak or partial responses and may not hold up.

Target: Lysosomal alpha-glucosidase (Homo sapiens) (UniProt P10253)
Experiment: qHTS Assay for Inhibitors and Activators of Human alpha-Glucosidase Cleavage of Glycogen
Settings: recombinant GAA, glycogen substrate, Amplex Red glucose oxidase fluorescence; series mostly up to 76.4 µM
Summary of the method: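 Natural-substrate format: glycogen cleavage by 4 nM human enzyme, glucose read by Amplex Red coupling (Ex 573, Em 610 nm). Normalized to enzyme and no-enzyme controls.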
Potency is the fitted concentration of half-maximal effect.

SMILES | Potency
COC(=O)C1Sc2[nH]c(=O)sc2C2c3ccccc3OC(=O)C12 (stereo not given) | inconclusive: 11.1 µM [inhibitor, partial curve]
COc1cc(C2C(C#N)=C(C)NC3=C2C(=O)CC(C)(C)C3)ccc1O (stereo not given) | inconclusive: 12.6 µM [inhibitor, partial curve]
CCn1cc(S(=O)(=O)c2ccc(C)cc2C)c(=O)c2cc(F)c(N3CCCCC3)cc21 | inactive
COc1ccc(O)c(CN2CCN(C/C=C/c3ccccc3)CC2)c1 | inconclusive: 35.5 µM [inhibitor, partial curve]
O=C(NN=C1CCCC1)c1ccc([N+](=O)[O-])cc1 | inconclusive: 7.08 µM [inhibitor, full curve, poor fit]
COc1cccc(NC(=S)NCc2ccc(F)cc2)c1 | inconclusive: 4.47 µM [inhibitor, full curve, poor fit]
CSC1=NCCCN1C(=O)c1c(-c2ccccc2Cl)noc1C | inactive
COCCNC(=O)CSc1nc2cc(OC)c(OC)cc2c(=O)n1Cc1ccc(OC)cc1 | inactive
COc1cc(-c2nnc(SCc3cc(=O)oc4cc(O)c(O)cc34)o2)cc(OC)c1OC | active: 15.8 µM
O=C(CSc1nnc(-c2ccccc2)o1)Nn1cnnc1 | inconclusive: 35.5 µM [inhibitor, partial curve]
O=C(O)c1cccc(N/N=C/C2=C(Cl)c3cc(Cl)ccc3SC2)c1 | inconclusive: 44.7 µM [inhibitor, single point]
Cc1c(N=Cc2ccc(Cl)o2)c(=O)n(-c2ccccc2)n1C | active: 4.47 µM
Cc1cccc(-n2c(O)c(C=Nc3c(C)n(C)n(-c4ccccc4)c3=O)c3ccccc3c2=O)n1 | inconclusive: 39.5 µM [inhibitor, single point]
CN(C)CCNc1oc(-c2ccc(COc3ccc(Cl)cc3)o2)nc1C#N | inconclusive: 3.55 µM [inhibitor, full curve]
CCOc1cc(C2C3=C(CCCC3=O)NC3=C2C(=O)CCC3)cc(Cl)c1O | active: 35.5 µM
O=C(O)c1ccccc1C(=O)NNc1cccc(Cl)n1 | inconclusive: 28.2 µM [inhibitor, partial curve]
CCc1ccc(C(=O)c2cn(Cc3ccc(F)cc3)c3cc(OC)c(OC)cc3c2=O)cc1 | inactive
COC(=O)C1=C(C)NC(C)=C(C(=O)OC)C1c1ccccc1OCc1c(C)no[n+]1[O-] | inconclusive: 24.9 µM [inhibitor, partial curve]
O=C(O)c1ccc(N/N=C/C(Br)=C/c2ccccc2)cc1 | inconclusive: 31.6 µM [inhibitor, single point]
N#CC1=C(N)NC(SCC(=O)O)=C(C#N)C12CCCC2 | inconclusive: 31.6 µM [inhibitor, partial curve]
O=C(NNC(=O)c1sccc1-n1cccc1)c1ccc(F)cc1 | inconclusive: 20 µM [inhibitor, partial curve]
C/C(=N\NC(=S)Nc1ccccc1)C1Cc2ccccc2C(=O)O1 (stereo not given) | active: 15.8 µM
Nc1[nH]nc2c1NN(c1ccc(Cl)cc1Cl)N2 | inconclusive: 50.1 µM [inhibitor, single point]
COc1ccccc1OCC(=O)NNc1c2ccccc2nc2ccccc12 | inconclusive: 12.6 µM [inhibitor, partial curve]

SMILES | Potency
CC1CCCCN1C(=O)c1cc(-c2ccc(Br)cc2)on1 (stereo not given) | inconclusive: 6.31 µM [inhibitor, partial curve]
CCOC(=O)C1=NN(C(=O)c2cccc(Br)c2)C(O)(C(C)(C)C)C1 (stereo not given) | inconclusive: 20 µM [inhibitor, partial curve]
CC(C)(C)C1CCc2oc3ccc(NS(=O)(=O)c4ccc(C(=O)O)cc4)cc3c2C1 (stereo not given) | inconclusive: 39.8 µM [inhibitor, single point]
CN1CCc2c(sc3c2C(=O)NC(c2ccc(C(C)(C)C)cc2)N3)C1 (stereo not given) | inactive
COc1cccc(NC(=O)C23CCC(C)(C(=O)O2)C3(C)C)c1 (stereo not given) | inconclusive: 7.08 µM [inhibitor, single point]
CC(=O)Nc1ccc(-c2ccccc2)s1 | inactive
CCCN(CCC)CCCNC(=O)c1cn(CC)c2ccc(S(=O)(=O)N3CCOCC3)cc2c1=O | inactive
Cc1[nH]n(-c2cccc([N+](=O)[O-])c2)c(=O)c1-c1ccccc1 | inconclusive: 28.2 µM [inhibitor, partial curve]
CCCc1cc(=O)oc2cc(OCC(=O)NC(Cc3c[nH]c4ccc(O)cc34)C(=O)O)c(Cl)cc12 (stereo not given) | active: 7.94 µM
COc1ccc(-n2cc(C(=O)NCCc3cc(OC)ccc3OC)c3ccccc3c2=O)cc1 | inactive
CNC(=O)CSc1cn(CC(=O)N2CCCCCC2)c2ccccc12 | active: 50.1 µM
Cn1cnc([N+](=O)[O-])c1Nc1ccc(O)cc1 | active: 28 µM
COc1ccc(NC2=CC(c3ccc(OC)cc3)N(c3ccc(OC)cc3)C2=O)cc1 (stereo not given) | inconclusive: 12.6 µM [inhibitor, partial curve]
C(=N\Nc1nc2ccccc2s1)/c1cccs1 | inconclusive: 28.2 µM [inhibitor, partial curve]
CCOC(=O)N1CCc2c(sc3c2C(=O)NC(c2cc(OC)c(OC)c(OC)c2)N3)C1 (stereo not given) | inconclusive: 15.8 µM [inhibitor, partial curve]
CCn1c2c(c3cc(Cl)ccc31)CCCC2=O | inactive
CCOc1ccc(S(=O)(=O)N(C)c2ccc(OCC(=O)NCC3CCCO3)cc2)cc1 (stereo not given) | inconclusive: 50.1 µM [activator, partial curve, poor fit]
C#CC(CO)N(CCN(Cc1ccccc1)C(C#C)CO)Cc1ccccc1 (stereo not given) | inconclusive: 44.3 µM [inhibitor, partial curve, poor fit]
COc1cc(OC)c(C2CC(=O)N3CN(c4ccccc4C)CSC3=C2C#N)cc1OC (stereo not given) | inconclusive: 12.5 µM [inhibitor, single point]
CN1CCN(c2ccc(Cl)cc2NC(=O)c2cccc(S(=O)(=O)N(C)C)c2)CC1 | inconclusive: 3.52 µM [inhibitor, single point]
O=S1(=O)CC/C(=N\Nc2ccccc2)c2ccsc21 | active: 25.1 µM
COc1ccc(CCNC(=O)CCCCn2c(=O)c3ccccc3n(CC(=O)Nc3c(C)cccc3C)c2=O)cc1OC | inactive
O=C(NNC(=S)NC(=O)c1cccs1)c1cccnc1 | inconclusive: 44.7 µM [inhibitor, partial curve, poor fit]
CCN1C(=O)C2CCCCN2c2ccc(C(=O)NCCOC)cc21 (stereo not given) | inconclusive: 3.52 µM [inhibitor, full curve]

SMILES | Potency
CCOC(=O)N=S(=O)(Oc1ccc([N+](=O)[O-])cc1)c1ccc(Cl)cc1 (stereo not given) | inconclusive: 9.92 µM [inhibitor, partial curve]
COc1ccc(NC(=S)/N=C(\N)Nc2nc(C)c3ccc(C)cc3n2)cc1 | inconclusive: 15.8 µM [inhibitor, partial curve]
CN(C)S(=O)(=O)c1cc(NC(=O)CN2CCN(c3ccccc3)CC2)ccc1Cl | inactive
COC(=O)c1c(NC(=O)Cc2coc3cc(C)ccc23)sc2c1CCC2 | inactive
O=C(COc1ccc(Cl)cc1)N1CCN(C(=O)c2cccs2)CC1 | inconclusive: 12.6 µM [inhibitor, partial curve]
CCOc1ccc(NC(=S)N(CCN2CCOCC2)Cc2ccc3c(c2)CCCN3CC)cc1 | inconclusive: 20 µM [inhibitor, partial curve]
C[C@H]1COC2=C1C(=O)C(=O)c1c2ccc2c1CCCC2(C)C | inactive
O=C(NC1CCCCC1)N1CCN(C2CCCCC2)CC1 | inactive
CCCn1c(CCC(=O)Nc2cc(C(=O)OC)cc(C(=O)OC)c2)nc2cccnc21 | inconclusive: 11.2 µM [inhibitor, single point]
Cc1ccc(C2NC(=O)c3sc(=S)n(-c4ccccc4)c3N2)cc1 (stereo not given) | inconclusive: 9.92 µM [inhibitor, partial curve]
Cn1c(=O)c2c([nH]c(=S)n2CCCc2ccccc2)n(C)c1=O | inconclusive: 28.2 µM [inhibitor, partial curve, poor fit]
N=c1scc(-c2ccccc2)n1/N=C/c1ccco1 | inconclusive: 28.2 µM [inhibitor, partial curve]
Oc1ccccc1CNc1ccc2c(c1)OCCO2 | inconclusive: 20 µM [inhibitor, partial curve]
CN(C)c1nc(NS(=O)(=O)c2ccc(Cl)cc2)nc(N(C)C)n1 | inactive
Cc1cc(NS(=O)(=O)c2ccc(Nc3nc(-c4sc(N)nc4C)cs3)cc2)no1 | inconclusive: 11.2 µM [inhibitor, partial curve]
NC(=S)NN=C(Cc1ccccc1)Cc1ccccc1 | inconclusive: 28.2 µM [inhibitor, single point]
Cc1cc(Nc2ccccc2)n(CCO)n1 | active: 28.2 µM
N#Cc1ccc(-c2csc(NNC(=O)c3ccccc3)n2)cc1 | active: 28.2 µM
Oc1ccc2c(c1)c1c3n2CCNC3CCC1 (stereo not given) | inconclusive: 35.5 µM [inhibitor, partial curve]
Cc1onc(-c2c(Cl)cccc2Cl)c1C(=O)NNc1ccccc1 | inconclusive: 11.1 µM [inhibitor, partial curve]
CC(C)Nc1c(N)c(=O)oc2ccccc12 | inconclusive: 15.8 µM [inhibitor, partial curve]
CCc1ccc(C(=O)NNc2ccc(F)cc2F)cc1 | inconclusive: 11.2 µM [inhibitor, partial curve]
